The record followed here is PMC8280134.

The target in the test is HuNoV GII.4 Sydney 2012 virus-like particle (human norovirus GII.4 (Sydney 2012)).

Bounds are passed on as bounds.

B1: NORO-320 recombinant Fab (Fab, V domains shown)
VH: QVQLVQSGPEVKKPGSSVKVSCKASGGTVSSYAISWVRQAPGQGLEWMGGIIPIFDTTNYAQKFQGRVTITADESTGTSDMELSSLRSEDTAVYYCARDRVPSYSPSRRFSTKGAMWGKYGMDVWGQGTLVTVSS
VL: [skipping about 120 residues]
Molecule B1 yielded a blocking of GII.4 Sydney 2012 VLP binding to porcine gastric mucin (PGM) glycans: not blocked above 1000 nM.
